Data as given in patent US20020193575A1 (published 2002).

Target: T1, recombinant E. coli human IL4 (non-glycosylated) (human, UniProt P05112 25-153)
T1 sequence (looked up): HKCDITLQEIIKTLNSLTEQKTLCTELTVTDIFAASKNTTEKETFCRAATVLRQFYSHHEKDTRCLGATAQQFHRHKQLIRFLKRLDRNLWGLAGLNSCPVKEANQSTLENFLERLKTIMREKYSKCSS
Experiment: cell-based or functional assay

CD23 induction on tonsil B lymphocytes, IC50: 0.136 nM
B1: murine MAb 3B9 (antibody, V domains shown)
VH: QVTLKESGPGILQPSQTLSLTCSFSGFSLSTSGMGVSWIRQPSGKGLEWLAHIYWDDDKRYNPSLKSRLTISKDTSSNQVFLKITSVDTADTATYYCARRETVFYWYFDVWGAGTTVTVSS
VL: DIVLTQSPASLAVSLGQRATISCKASQSVDYDGDSYMNWYQQKPGQPPKLLIYAASNLESGIPARFSGSGSGTDFTLNIHPVEEEDAATYYCQQSNEDPPTFGGGTKLEIKR
